Measured values published in PubChem BioAssay AID686978 (National Center for Advancing Translational Sciences (NCATS), 2013).
About 64,000 (15%) of roughly 420,000 compounds were called active. Inconclusive results, whose numbers are uncertain, are shown with a selection of clear calls. Calls follow the shape of the dose curve; as a rule, active = well fitted inhibition curve with a large enough effect; inconclusive = small, poorly fitted or top-dose-only effect; inactive = flat fitted curve, though single readings scatter. Potencies of inconclusive entries are left out as doubtful fits.

assay: qHTS for Inhibitors of human tyrosyl-DNA phosphodiesterase 1 (TDP1): qHTS in cells in absence of CPT; conditions: DT40 Tdp1-/- hTDP1 cells, no CPT, ATP luminescence, 48 h; activity change, negative = growth inhibition: at 46.2 µM (top of the series) unless noted; also: nearly all actives have a fitted effect of over 55% in size
Method in brief: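 Cells were dispensed at 400 per well, compounds added by pin tool, plates incubated ≥48 hr at 37 °C, then CellTiter-Glo added for 30 min at room temperature before luminescence reading. Line: DT40 Tdp1-/- complemented with hTDP1; camptothecin omitted.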
% is scaled to controls: 0 for no effect and ±100 for the full control effect; potency is read from the fitted curve at half-maximal effect; tags tell the direction and shape of the fitted curve.

| SMILES | Potency | activity change, negative = growth inhibition |
| --- | --- | --- |
| O=C(CSc1ccccn1)Nc1ccc2c(c1)oc1ccccc12 | inconclusive [inhibitor, single point] | – |
| Cc1nc(Sc2nnnn2C2CC2)c2c(-c3ccccc3)csc2n1 | active: 11.2 µM | – |
| COc1cc(C(=O)OCC(=O)N(C)Cc2ccccc2)cc(OC)c1OC | inconclusive [inhibitor, single point] | – |
| Cc1cccc(CN2C(=O)c3ccccc3Sc3ccc(C(=O)NCCc4ccccc4)cc32)c1 | inconclusive [inhibitor, single point] | – |
| COC(=O)/C=C1/N/C(=N\c2nc(C)cc(C)n2)N(c2ccc(Cl)cc2)C1=O | inconclusive [inhibitor, single point] | – |
| COc1cc(NC(=O)c2ccc(Br)o2)ccc1NC(=O)c1ccccc1Cl | inconclusive [inhibitor, single point] | – |
| Cc1cc(NC(=O)CCC(=O)N(Cc2ccco2)C(C(=O)NC2CCCC2)c2ccccc2F)no1 (configuration not stated) | inconclusive [inhibitor, single point] | – |
| COc1ccc(Cc2nc(C(=O)Nc3ccccc3)cs2)cc1 | inconclusive [inhibitor, partial curve] | – |
| Cc1ccc(CN2CCN(/N=C/c3ccc(O)c(O)c3)CC2)cc1 | active: 4.11 µM | – |
| CCC(=O)N1CCc2cc(CNS(=O)(=O)c3ccc(Cl)s3)ccc21 | active: 16.4 µM | – |
| NC(=S)NNc1ccc(Cl)c(Cl)c1 | inconclusive [inhibitor, partial curve, poor fit] | – |
| O=C(Nc1ccc2c(c1)OCO2)C1CCCN(S(=O)(=O)Cc2ccccc2)C1 (configuration not stated) | inconclusive [inhibitor, single point] | – |
| COc1ccc(NC(=O)CSc2nc3ccsc3c(=O)n2Cc2ccccn2)c(OC)c1 | inconclusive [inhibitor, single point] | – |
| Cc1ncccc1C(=O)N1CCCC(c2cc(C(=O)Nc3ccc(C(C)(C)C)cc3)no2)C1 (configuration not stated) | active: 11.6 µM | – |
| COc1cccc(C(C(=O)NC2CCCC2)N(C(=O)c2ccco2)c2ccc(-n3cnnn3)c(C)c2)c1OC (configuration not stated) | active: 2.91 µM | – |
| CCCCn1nnnc1C(c1ccc(OC)cc1)N1CCN(C/C=C/c2ccccc2)CC1 (configuration not stated) | active: 18.4 µM | – |
| Cc1ccc(S(=O)(=O)N2CCN(C3CC4CCC3C4)CC2)cc1 (configuration not stated) | – | inconclusive: -30.1% [inhibitor] |
| FC(F)(F)c1cc(-c2ccccn2)nc2cc(-c3ccccc3)nn12 | inactive | – |
| CCOc1ccc(NC(=O)C(C)Oc2ccccc2C(=O)Nc2ccc(C)c(Cl)c2)cc1 (configuration not stated) | inconclusive [inhibitor, single point] | – |
| CCN1CCN(S(=O)(=O)c2ccc(Cl)c(C(=O)N(C)Cc3cccs3)c2)CC1 | inconclusive [inhibitor, single point] | – |
| O=C(NCC1COc2ccccc2O1)c1c[nH]c2ccc(S(=O)(=O)N3CCOCC3)cc2c1=O (configuration not stated) | active: 13 µM | – |
| Cc1cc(Nc2cccc(F)c2)n2nc(-c3ccco3)nc2n1 | inconclusive [inhibitor, single point] | – |
| Cc1ccc(NC(=O)Nc2ccccc2C(N)=O)cc1 | inconclusive [inhibitor, single point] | – |
| C=CCn1c(=S)[nH]c2cc(C(=O)Nc3ccc(OC)c(OC)c3)ccc2c1=O | inconclusive [inhibitor, single point] | – |

| SMILES | Potency | activity change, negative = growth inhibition |
| --- | --- | --- |
| CCOc1ccccc1N1CCN(C(=O)c2cc(C)oc2C)CC1 | active: 23.1 µM | – |
| COC(=O)CCCCCCCCC(O)CN(C)C (configuration not stated) | active: 16.4 µM | – |
| CCOc1ccc(-n2c(SCC(=O)N3CCc4ccccc43)nnc2-c2c[nH]c3ccccc23)cc1 | inconclusive [inhibitor, single point] | – |
| CCOc1ccc(C(O)(CCC(C)C)C(CN2CCOCC2)c2ccccc2)cc1 (configuration not stated) | active: 20.6 µM | – |
| C[C@@H]1CCC(=O)N(C[C@@H](C)CSc2ccc(Br)cc2)CC1 | active: 17.8 µM | – |
| COc1cc(CNCCc2ccccc2)cc(Cl)c1OCc1ccccc1 | inconclusive [inhibitor, single point] | – |
| Cc1ccc(S(=O)(=O)CCN2CCC(n3cccc3)CC2)cc1 | inactive | – |
| O=C(O)C1CCN(C(=O)CCN2C(=O)S/C(=C\c3ccccc3)C2=O)CC1 | inactive | – |
| O=C(Nc1ccnn1C1CCN(Cc2ccccc2OC(F)F)CC1)c1cccnc1 | inconclusive [inhibitor, single point] | – |
| COc1ccc(NC(=O)c2ccc(NC(=O)c3nc4nccc(C)n4n3)cc2)cc1 | inactive | – |
| CN(C)CCNc1ncnc2c1sc1nc(-c3ccccc3)c3c(c12)CCCC3 | active: 23.1 µM | – |
| COc1cccc(C2(CSc3nnc(-c4cc(OC)c(OC)c(OC)c4)o3)OCCO2)c1 | inconclusive [inhibitor, single point] | – |
| COC(=O)c1ccc2c(=O)n(CCCCCC(=O)NC(C)C)c(=O)[nH]c2c1 | active: 20.6 µM | – |
| Cc1ccccc1OCCCSc1nc2ccccc2[nH]1 | active: 16.4 µM | – |
| Cc1cccc(-n2ncc3c(N4CCN(CCO)CC4)ncnc32)c1 | – | inconclusive: -30.2% [inhibitor] |
| O=C(Nc1nnc2n1CCS2)c1ccccc1 | inconclusive [inhibitor, single point] | – |
| CC(=O)C(Sc1nc(NC(C)(C)C)nc(N(C)C)n1)C(C)=O | inconclusive [inhibitor, partial curve, poor fit] | – |
| Cc1ccc(-c2csc(SCC(=O)c3c(N)n(C4CC4)c(=O)[nH]c3=O)n2)cc1 | inactive | – |
| CCOC(=O)N1CCN(C(=O)c2cn(C)c3ccc(S(=O)(=O)N4CCCC4)cc3c2=O)CC1 | inactive | – |
| CN(Cc1cccs1)C(=O)COc1ccc(-c2nnco2)cc1 | inactive | – |
| Nc1nc(SCC(=O)N2N=C(c3ccc(Cl)cc3)CC2c2ccco2)n[nH]1 (configuration not stated) | inactive | – |
| CC(C)c1ccc(NC(=S)NCCc2c[nH]c3ccccc23)cc1 | active: 25.9 µM | – |
| CCc1cccc(NC(=O)NC(=O)Cn2nnc(C(=O)OC)c2C(=O)OC)c1 | inactive | – |
| COc1ccc(NC(=S)N/N=C/c2cccn2Cc2ccc(F)cc2Cl)cc1 | active: 10.3 µM | – |

| SMILES | Potency | activity change, negative = growth inhibition |
| --- | --- | --- |
| CC(C)(C)NC(=O)CN(C(=O)CS(=O)CC(=O)Nc1ccc(F)cc1)c1cccc(F)c1 (configuration not stated) | inactive | – |
| COc1ccc(C(=O)N2CCC3(CC2)CN(Cc2ccc(C#N)cc2)C3)cc1 | inconclusive [inhibitor, partial curve] | – |
| CCOC(=O)c1cc(-c2ccc(OC)cc2)n(CCC(=O)Nc2ccc(OC)cc2OC)c1C | active: 20.6 µM | – |
| COc1cc(C(=O)NCC(c2ccccc2)N(C)C)ccc1OCc1c(C)noc1C (configuration not stated) | inconclusive [inhibitor, single point] | – |
| Nc1cc2c(cc1Cl)-c1ccc(Cl)cc1C2 | inconclusive [inhibitor, partial curve] | – |
| COc1ccccc1CNC(=O)c1ccc(Nc2nc3ccccc3n3nnnc23)cc1 | inconclusive [inhibitor, partial curve] | – |
| Fc1ccc(-c2cc(C(F)(F)F)n3ncnc3n2)cc1 | inconclusive [inhibitor, full curve, poor fit] | – |
| CCOc1ccc(/C=C/c2nc3ccccc3n2S(=O)(=O)c2cccc(Cl)c2)cc1 | active: 6.51 µM | – |
| CCOC(=O)N1CCN(C(=O)CCC2CCCC2)CC1 | inactive | – |
| O=C(CNC(=O)N1CC(=O)Nc2ccccc21)NCc1ccccc1Cl | inactive | – |
| CCOc1ccc(N(CC(=O)N2CCN(c3ccc(F)cc3)CC2)S(=O)(=O)c2c(C)noc2C)cc1 | inconclusive [inhibitor, single point] | – |
| CCOC(=O)c1c(-c2cccs2)csc1NC(=O)CC(C)C | active: 20.6 µM | – |
| Cc1ccc(Oc2ccccc2)c(NC=O)c1 | inconclusive [inhibitor, partial curve, poor fit] | – |
| CN(Cc1cccc(F)c1)C(=O)CNS(=O)(=O)c1ccc2ccccc2c1 | inactive | – |
| CN(C)S(=O)(=O)c1ccc(C(=O)NCCSc2ccc(Br)cc2)cc1 | inconclusive [inhibitor, single point] | – |
| COc1ccc(C2(c3ccc(OC)cc3)NC(=O)N(CC(=O)Nc3ccc(C(N)=O)cc3)C2=O)cc1 | inconclusive [inhibitor, single point] | – |
| COc1ccccc1N1CCN(c2nc3ccccn3c(=O)c2C=O)CC1 | inconclusive [inhibitor, single point] | – |
| CCN(CC)CCN(Cc1cc2cc(C)ccc2[nH]c1=O)C(=O)Nc1ccccc1OC | inconclusive [inhibitor, single point] | – |
| Cc1ccc(NC(=S)N(CCN(C)C)C(C)c2cccnc2)cc1 (configuration not stated) | inactive | – |
| COc1cccc(-c2nc(SCC(=O)NC3CCCC3)c(-c3ccc(F)cc3)[nH]2)c1 | active: 20.6 µM | – |
| CC(C)(C)c1cc(C(=O)NCCCn2ccnc2)cc(C(C)(C)C)c1 | inconclusive [inhibitor, single point] | – |
| CC(C)(C)OC(=O)N(Cc1ccccc1)Cc1ccccc1OCc1ccc(NC(=O)C2CCC2)cc1 | inconclusive [inhibitor, single point] | – |
| CC1CCN(S(=O)(=O)c2ccc3nc(Nc4cccc(C(F)(F)F)c4)ccc3c2)CC1 | inconclusive [inhibitor, partial curve, poor fit] | – |
| COc1ccc(NC(=S)NCc2ccc(Cl)cc2)c(OC)c1 | inconclusive [inhibitor, single point] | – |
